# The other results are listed elsewhere or left out.
# How the values were obtained:
# HSkMC = human skeletal muscle cells; test: cytotoxicity call (relative viability < 0.9); conditions: 10 µM
# S. aureus RN4220 = test: growth inhibition call (relative growth <= 0.2); conditions: 50 µM
Compound,cytotoxicity call (HSkMC),growth inhibition call (S. aureus RN4220)
COCC(=O)N1C[C@H](C)[C@H](OC)CN(C)C(=O)c2ccc(NC(=O)Nc3ccccc3)cc2OC[C@H]1C,inactive,inactive
Cc1noc(C)c1S(=O)(=O)Nc1ccc2c(c1)C(=O)N([C@H](C)CO)C[C@@H](C)[C@@H](CN(C)C(=O)Nc1cccc3ccccc13)OCCCC[C@@H](C)O2,inactive,inactive
Cc1noc(C)c1S(=O)(=O)Nc1ccc2c(c1)CC(=O)N([C@@H](C)CO)C[C@H](C)[C@@H](CN(C)Cc1ccc(C(=O)O)cc1)O2,inactive,inactive
C[C@H](CO)N1C[C@H](C)[C@H](CN(C)Cc2ccc(-c3ccccc3)cc2)Oc2c(NC(=O)c3ccncc3)cccc2C1=O,inactive,inactive
COc1ccc(NC(=O)O[C@H]2[C@H](OC(=O)Nc3ccccc3-c3ccccc3)[C@H](OC(=O)Nc3ccccc3-c3ccccc3)[C@@H](OC)O[C@@H]2COC(=O)NCCCCCC(=O)NO)cc1,inactive,inactive
CS(=O)(=O)CS(=O)(=O)C1=C(N2CCOCC2)C2CCN1CC2,inactive,inactive
C[C@@H]1CN([C@H](C)CO)C(=O)c2cc(NC(=O)C3CCCCC3)ccc2O[C@@H](C)CCCCO[C@@H]1CN(C)S(=O)(=O)c1ccc(F)cc1,inactive,inactive
C[C@@H]1CN([C@H](C)CO)C(=O)CCCn2cc(nn2)CO[C@H]1CN(C)S(=O)(=O)c1ccc(Cl)cc1,inactive,inactive
Cn1cnc(S(=O)(=O)N2C[C@H](O)COC[C@H]3O[C@H](CC(=O)NC4Cc5ccccc5C4)CC[C@@H]32)c1,inactive,inactive
CCCC[P+](CCCC)(CCCC)Cc1ccc(NC(=O)[C@H](Cc2ccc3ccccc3c2)N/C(=N/C2CCCCC2)NC2CCCCC2)cc1,inactive,active
C[C@@H]1CN([C@@H](C)CO)C(=O)Cc2cc(NC(=O)Cn3cnnn3)ccc2O[C@H]1CN(C)S(=O)(=O)c1ccccc1,inactive,inactive
C[C@@H]1CCCCO[C@@H](CN(C)Cc2ccc(C(F)(F)F)cc2)[C@@H](C)CN([C@H](C)CO)C(=O)c2cc(NC(=O)CCCN(C)C)ccc2O1,inactive,inactive
COc1ccc(S(=O)(=O)N(C)C[C@@H]2Oc3ccc(N(C)C)cc3C(=O)N([C@H](C)CO)C[C@H]2C)cc1,inactive,inactive
Cc1noc(C)c1S(=O)(=O)N(C)C[C@H]1Oc2ccc(NC(=O)c3ccncc3)cc2CC(=O)N([C@H](C)CO)C[C@@H]1C,inactive,inactive
Cc1noc(C)c1S(=O)(=O)Nc1cccc2c1O[C@H](CN(C)Cc1ccc(C(=O)O)cc1)[C@H](C)CN([C@@H](C)CO)C2=O,inactive,inactive
O=C(C[C@H]1C[C@H]2c3cc(NC(=O)NC4CCCC4)ccc3O[C@H]2[C@H](CO)O1)NCc1ccc(-c2ccccc2)cc1,inactive,inactive
C[C@@H]1CN([C@H](C)CO)C(=O)Cc2cc(NC(=O)Nc3ccc(F)cc3)ccc2O[C@H]1CN(C)Cc1ccc(Cl)c(Cl)c1,active,inactive
Brc1ccc2nc(N3CCCN(Cc4ccccc4)CC3)nc(NC3CCN(Cc4ccccc4)CC3)c2c1,active,active
C[C@@H]1CN([C@H](C)CO)C(=O)c2cc(NC(=O)Cc3ccccc3)ccc2O[C@@H](C)CCCCO[C@@H]1CN(C)CC1CCCCC1,inactive,inactive
NC(Cc1cc(I)c(Oc2ccc(O)c(I)c2)c(I)c1)C(=O)O (stereo unspecified),inactive,inactive

Compound,cytotoxicity call (HSkMC),growth inhibition call (S. aureus RN4220)
CCOC(=O)[C@@H]1C(Cc2ccccc2)=CN(CCc2ccc(OC)c(OC)c2)C(=O)N1c1ccc(OC)cc1,inactive,inactive
C[C@@H]1CCCCO[C@H](CN(C)Cc2ccc3c(c2)OCO3)[C@@H](C)CN([C@@H](C)CO)C(=O)c2cc(NC(=O)C3CCCCC3)ccc2O1,inactive,inactive
C[C@H]([C@H](C)N1CC(=O)NC(=O)C1)N1CC(=O)NC(=O)C1,inactive,inactive
COc1ccc(S(=O)(=O)N(C)C[C@H]2Oc3c(NS(=O)(=O)c4cn(C)cn4)cccc3C(=O)N([C@H](C)CO)C[C@@H]2C)cc1,inactive,inactive
C[C@H]1CN([C@@H](C)CO)C(=O)c2cc(NC(=O)C3CCCCC3)ccc2O[C@@H]1CN(C)Cc1ccc(Oc2ccccc2)cc1,inactive,inactive
C[C@@H]1CN([C@H](C)CO)C(=O)c2cc(NC(=O)Cn3cnnn3)ccc2O[C@H]1CN(C)S(=O)(=O)c1cccs1,inactive,inactive
C[C@@H]1CCCCO[C@@H](CN(C)Cc2ccc3c(c2)OCO3)[C@H](C)CN([C@H](C)CO)C(=O)c2cc(NS(=O)(=O)c3cccs3)ccc2O1,inactive,inactive
C[C@@H]1CN([C@H](C)CO)C(=O)c2cccc(NC(=O)c3ccncc3)c2O[C@H]1CN(C)Cc1ccc(C(=O)O)cc1,inactive,inactive
CC(N)(Cc1cccc(O)c1)C(=O)O (stereo unspecified),inactive,inactive
COc1ccc(CCNC(=O)[C@@]2(Sc3ccc(C)cc3)CC(=O)N(Cc3ccccc3C(F)(F)F)[C@@H]2c2ccc(CO)cc2)cc1,inactive,inactive
C/C=C/c1ccc2c(c1)O[C@H](CN(C)S(=O)(=O)c1ccccc1OC)[C@@H](C)CN([C@H](C)CO)S2(=O)=O,inactive,inactive
Cc1noc(C)c1NC(=O)N[C@H]1C=C[C@H](CC(=O)N2CCN(C)CC2)O[C@@H]1CO,inactive,inactive
COc1ccc(NC(=O)N(C)C[C@@H]2OCCCC[C@@H](C)Oc3ccc(NS(=O)(=O)c4c(C)noc4C)cc3C(=O)N([C@@H](C)CO)C[C@H]2C)cc1,inactive,inactive
O=C(C[C@H]1CC[C@H]2[C@@H](COC[C@@H](O)CN2C(=O)Nc2ccc(C(F)(F)F)cc2)O1)NCCc1ccncc1,inactive,active
C[C@@H]1CN([C@@H](C)CO)S(=O)(=O)c2ccc(-c3cccnc3)cc2O[C@H]1CN(C)C(=O)c1cccc(F)c1,inactive,inactive
O=S1(=O)CC=CC1,inactive,inactive
C[C@@H]1CN([C@@H](C)CO)C(=O)c2cccc(NC(=O)C3CCOCC3)c2O[C@@H]1CN(C)S(=O)(=O)c1ccccc1,inactive,inactive
CN1C(=O)c2cc(NC(=O)c3ccc(F)c(F)c3)ccc2OC[C@H]2O[C@H](CC(=O)N3CCOCC3)CC[C@H]21,inactive,inactive
COc1ccc(C(=O)c2ccccc2)c(O)c1,inactive,inactive
C[C@@H]1CN([C@H](C)CO)C(=O)c2cccc(NC(=O)c3nc4ccccc4s3)c2O[C@@H]1CN(C)S(=O)(=O)c1cn(C)cn1,inactive,inactive

Compound,cytotoxicity call (HSkMC),growth inhibition call (S. aureus RN4220)
C[C@@H]1CN([C@@H](C)CO)C(=O)c2cccc(NC(=O)c3ccncc3)c2O[C@@H]1CN(C)Cc1ccncc1,inactive,inactive
COc1ccc(CNC(=O)C[C@H]2C[C@H]3c4cc(NC(=O)NC5CCCC5)ccc4O[C@H]3[C@H](CO)O2)cc1,inactive,inactive
C[C@H]1CN([C@@H](C)CO)C(=O)CCCn2nncc2CO[C@@H]1CN(C)C(=O)Nc1cccc2ccccc12,inactive,inactive
CC(C)NC(=O)N(C)C[C@@H]1OCCCC[C@@H](C)Oc2ccc(NC(=O)C3CCCCC3)cc2C(=O)N([C@H](C)CO)C[C@@H]1C,inactive,inactive
Cc1ccc(S(=O)(=O)N(C)C[C@H]2OCCCC[C@H](C)Oc3ccc(NC(=O)NC4CCCCC4)cc3C(=O)N([C@@H](C)CO)C[C@H]2C)cc1,inactive,inactive
Cc1ccc(S(=O)(=O)N(C)C[C@H]2Oc3c(NS(=O)(=O)c4cccs4)cccc3C(=O)N([C@H](C)CO)C[C@H]2C)cc1,inactive,inactive
C[C@@H]1CCCCO[C@@H](CN(C)C(=O)c2ccncc2)[C@H](C)CN([C@@H](C)CO)C(=O)c2cc(NS(=O)(=O)c3ccc(Cl)cc3)ccc2O1,inactive,inactive
C[C@@H]1CN([C@@H](C)CO)C(=O)c2cc(NC(=O)Cc3ccccc3)ccc2O[C@@H]1CN(C)S(C)(=O)=O,inactive,inactive
Cc1ccc(S(=O)(=O)Nc2ccc3c(c2)C(=O)N([C@@H](C)CO)C[C@@H](C)[C@H](CN(C)C(=O)NC2CCCCC2)OCCCC[C@H](C)O3)cc1,inactive,inactive
Cc1cccc(NC(=O)Nc2ccc3c(c2)C(=O)N(C)[C@H]2CC[C@H](CC(=O)NCc4ccccc4Cl)O[C@H]2CO3)c1,inactive,inactive
COc1ccc(S(=O)(=O)N[C@H]2CC[C@@H](CC(=O)N3CCN(c4ccccc4)CC3)O[C@H]2CO)cc1,inactive,inactive
Cc1noc(C)c1NC(=O)N(C)C[C@H]1OCCCC[C@H](C)Oc2ccc(NS(=O)(=O)c3ccccc3)cc2C(=O)N([C@@H](C)CO)C[C@H]1C,inactive,inactive
CN(C)CC(=O)N[C@@H]1CC[C@H](CCNS(=O)(=O)c2ccccc2)O[C@H]1CO,inactive,inactive
C[C@@H]1CCCCO[C@@H](CN(C)C(=O)NC2CCCCC2)[C@@H](C)CN([C@H](C)CO)C(=O)c2cc(NC(=O)c3ccncc3)ccc2O1,inactive,inactive
C[C@@H]1CN([C@@H](C)CO)C(=O)Cc2cc(NC(=O)Nc3ccc(C(F)(F)F)cc3)ccc2O[C@H]1CN(C)C(=O)Nc1ccc(F)cc1,inactive,inactive
C[C@H]1CCCCO[C@@H](CN(C)S(=O)(=O)c2cccs2)[C@@H](C)CN([C@@H](C)CO)C(=O)c2cc(NS(=O)(=O)c3ccc(Cl)cc3)ccc2O1,inactive,inactive
C[C@H](CO)N1C[C@H](C)[C@H](CN(C)Cc2ccncc2)Oc2ccc(NS(=O)(=O)c3ccccc3)cc2C1=O,inactive,inactive
COc1ccc(NC(=O)N(C)C[C@H]2OCCCC[C@H](C)Oc3ccc(NS(=O)(=O)c4ccccc4)cc3C(=O)N([C@@H](C)CO)C[C@@H]2C)cc1,inactive,inactive

# From the antibiotic and cytotoxicity screens of Wong et al. (2023)
